Test results: PubChem BioAssay AID1671188 (National Center for Advancing Translational Sciences (NCATS), 2021)
Several values for one entry are separate records, joined by “and”; a condition that tells them apart may be missing. Equal entries are not always repeated. The campaign covered roughly 100,000 compounds. About 250 (0.25%) were called active. Inconclusive means that the source gave no clear call. Such entries were picked first, then a sample of the others. Calls come from the whole dose curve; as a rule, active = well fitted inhibition curve with a large enough effect; inconclusive = small, poorly fitted or top-dose-only effect; inactive = flat fitted curve, though single readings scatter. Where the call is inconclusive, the potency comes from a doubtful curve fit.

What follows are compounds tested against Alanine aminotransferase 2 (Homo sapiens) (UniProt Q8TD30) (assay: Primary qHTS assay for inhibitors of Glutamate pyruvate transaminase 2 (GPT2)). Conditions: Recombinant GPT2, coupled pyruvate oxidase/HRP Amplex Red fluorescence; activity change, negative = inhibition: at 57.7 µM (top of the series) unless noted; series mostly up to 57.7 µM.
In short: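 Fluorescence read-out: pyruvate from GPT2 turnover coupled to pyruvate oxidase, HRP and Amplex Red (0.2mM ThPP, 0.2U/mL PO and HRP, 50uM Amplex final). Substrates 250uM a-KG, 2mM L-alanine; enzyme 10ng/uL; 30 min RT.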
% is set by controls: 0 for no effect and ±100 for the full control effect; potency is the fitted concentration of half-maximal effect; tags give direction and shape of the fitted curve.
Note: nearly all actives have a fitted effect of over 60% in size.

Sequence of UniProt Q8TD30 (Q8TD30 whole entry, looked up): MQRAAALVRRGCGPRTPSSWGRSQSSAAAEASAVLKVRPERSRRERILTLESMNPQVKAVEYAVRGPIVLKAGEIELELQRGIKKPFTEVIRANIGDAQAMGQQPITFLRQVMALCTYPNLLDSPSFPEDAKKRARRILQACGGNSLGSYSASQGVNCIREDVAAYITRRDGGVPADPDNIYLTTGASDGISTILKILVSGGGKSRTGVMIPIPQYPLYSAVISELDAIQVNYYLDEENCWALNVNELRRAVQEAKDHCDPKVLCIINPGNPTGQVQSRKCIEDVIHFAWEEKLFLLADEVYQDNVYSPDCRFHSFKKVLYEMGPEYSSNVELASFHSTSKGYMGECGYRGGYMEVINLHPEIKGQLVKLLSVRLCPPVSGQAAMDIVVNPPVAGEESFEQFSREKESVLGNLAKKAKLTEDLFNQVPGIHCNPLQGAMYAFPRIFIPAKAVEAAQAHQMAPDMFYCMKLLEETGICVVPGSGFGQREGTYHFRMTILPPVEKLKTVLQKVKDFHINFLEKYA

SMILES	Potency	activity change, negative = inhibition	outcome
CCC1Oc2ccc(NC(=O)C(CC)c3ccccc3)cc2CN(Cc2ccc(OC)cc2)C1=O (stereo unspecified)	inconclusive: 31.6 µM [inhibitor, single point]	–	–
O=C(O)C1(Cc2ccccc2F)CCCN(c2ncnc3sccc23)C1 (stereo unspecified)	–	inactive: -6.11%	–
COc1ccccc1C(=O)N1CCn2c(nnc2-c2ccccc2)C1	inconclusive: 11.2 µM [inhibitor, single point]	–	–
CCC(c1ccccc1)N1Cc2cc(NS(=O)(=O)c3ccc(F)cc3)ccc2OC(C)C1=O (stereo unspecified)	–	inactive: -9.02%	–
CCOc1ccc(C2Cn3nnc(-c4nc(-c5ccccc5OC)no4)c3CO2)cc1 (stereo unspecified)	inconclusive: 3.16 µM [inhibitor, single point]	–	–
O=C1[C@@H]2C[C@@H](O)CN2C2(CN(Cc3ccccn3)C2)C(=O)N1Cc1ccccc1Cl	inconclusive: 5.62 µM [inhibitor, partial curve, poor fit]	–	–
Cc1ccc(C2=NC3(CCN(C(=O)Cc4ccccc4Cl)CC3)ON2)cc1	inconclusive: 4.47 µM [inhibitor, single point]	–	–
O=C(CC1CCOC2(CCN(Cc3cccs3)CC2)C1)N1CCOCC1 (stereo unspecified)	–	–	inactive
O=c1n(CC2CC2)nc2n1CCN(Cc1ccc3[nH]ccc3c1)CC2	inconclusive: 0.708 µM [inhibitor, full curve, poor fit]	–	–
O=[S+]1([O-])NC2(CCN(CC3CCCCC3)CC2)CNc2ccccc21	inconclusive: 35.5 µM [inhibitor, single point]	–	–
CC(C)N1CC2CCC(C1)N2Cc1cccc(-c2ccsc2)c1	–	–	inactive
Cc1cc2nc3n(c(=O)c2n1CC(=O)NCCCc1ccccc1)CCCC3	inconclusive: 39.8 µM [inhibitor, single point]	–	–
CCC1(N2CCN(C(=O)c3ccc(C(F)(F)F)cc3)CC2)CCN(S(C)(=O)=O)C1 (stereo unspecified)	inconclusive: 35.5 µM [inhibitor, single point]	–	–
C[C@@H]1CC[C@@]2(OC1)O[C@H]1C[C@H]3[C@@H]4CC[C@H]5C[C@@H](O)CC[C@]5(C)[C@H]4CC(=O)[C@]3(C)[C@H]1[C@@H]2C	active: 2.24 µM	–	–
CC(C)Cn1c(=O)c(C(=O)NCc2ccc(F)cc2)nc2cccnc21	inconclusive: 25.1 µM [inhibitor, single point]	–	–
CCCc1nc(C(=O)N2CCOCC(O)(CN3CCCC3)C2)cs1 (stereo unspecified)	inconclusive: 3.16 µM [inhibitor, partial curve, poor fit]	–	–
COCc1nc(C2CCCN(C(=O)Nc3ccccc3C)C2)no1 (stereo unspecified)	inconclusive: 6.31 µM [inhibitor, single point]	–	–
CCn1cc(S(=O)(=O)N2C[C@@H](Oc3ccccc3)C[C@H]2C(=O)N2CCOCC2)cn1	inconclusive: 39.8 µM [inhibitor, single point]	–	–
CC(C)CC(=O)N1CCCCCNC(=O)[C@H]2C[C@H](C(=O)N3CCc4ccccc4C3)C[C@H]21	inconclusive: 17.8 µM [inhibitor, partial curve]	–	–
Cc1ncoc1C(=O)N1CCC2(CCCN(CC3CCCCC3)C2=O)C1 (stereo unspecified)	inconclusive: 6.31 µM [inhibitor, single point]	–	–
O=C(c1ccncc1)N1CC(Oc2ccccc2-c2nc(C3CC3)no2)C1	–	–	inactive
CCOc1ccc(NC(=O)Cn2c(Nc3cc(C)cc(C)c3)nc(C)cc2=O)cc1	–	inactive: -13.7%	–

SMILES	Potency	activity change, negative = inhibition	outcome
CC(C)CNC(=O)C1CCCN(c2ccnc3ccnn23)C1 (stereo unspecified)	inconclusive: 12.6 µM [inhibitor, single point]	–	–
Cc1ccc(-c2noc([C@@H]3C[C@H](NC(=O)CC(C)(C)CC(=O)O)CN3C)n2)cc1	inconclusive: 10 µM [inhibitor, single point]	–	–
C[C@H](O)c1onc(-c2ccccc2)c1C(=O)N1CCCCCC1	inconclusive: 5.62 µM [inhibitor, partial curve, poor fit]	–	–
c1ccc(CN2CC[C@H](c3nc4ccccc4o3)C2)nc1	inconclusive: 6.31 µM [inhibitor, partial curve, poor fit]	–	–
CC(=O)N(C1CC1)C1CCOC2(CCN(C(=O)c3cc(C)n(C)n3)CC2)C1 (stereo unspecified)	–	–	inactive
Cc1ccc(CN2CCN(C(=O)C3Cn4cccc4C(=O)N3Cc3cccnc3)CC2)cc1 (stereo unspecified)	–	inactive: -1.76%	–
COc1cccc(-c2cc3c(=O)n(CCNC(=O)c4ccc5cc[nH]c5c4)ccn3n2)c1	inconclusive: 39.8 µM [inhibitor, single point]	–	–
CCNC(=O)N1CC(C(=O)NCc2cccc(C)c2)CC(c2ccc(F)c(C)c2)C1 (stereo unspecified)	–	–	inactive
Cc1ccccc1CC(=O)N1CCC2(CC1)N(C)C(=O)CS2(=O)=O	inconclusive: 35.5 µM [inhibitor, single point]	–	–
O=C(CN1C(=O)C(c2ccccc2)=NC12CCCCCC2)Nc1cccc(Cl)c1	–	inactive: -10.6%	–
Cc1cccc(NC(=O)N2CCC(Cc3nncn3CC3CC3)CC2)c1	–	inactive: -2%	–
C[C@H](NC(CCc1ccccc1)C(=O)O)C(=O)N1CCC[C@H]1C(=O)O (stereo partly specified)	inconclusive: 39.8 µM [inhibitor, single point]	–	–
COc1cccc(C(=O)N(C)Cc2ccc(-c3ccccc3)cc2)c1	–	inactive: -2.07% [at 88.5 µM]	–
O=C(c1cc[n+]([O-])cc1)N1CCC2(CCCN(CCC3CCCCC3)C2)C1 (stereo unspecified)	–	inactive: -2.05%	–
CCCCNC(=O)COc1ccc(NC(=O)C2CC2)cn1	–	inactive: 1.54%	–
CC(=O)N1CCN(c2ncccc2CNCc2ccc(CC(C)C)cc2)CC1	inconclusive: 4.47 µM [inhibitor, full curve, poor fit]	–	–
CC1=C[C@@H](CNc2ccccn2)[C@H](C(C)C)C[C@H]1Cc1nnc(-c2ccc(C)cc2)o1	–	inactive: -18.3% [at 88.5 µM]	–
CCn1ccc2oc(C)c(C(=O)N3CCN(c4ccc(OC)cc4)CC3)c2c1=O	inconclusive: 3.55 µM [inhibitor, single point]	–	–
CN1C(=O)[C@@H]2C[C@@H](O)CN2C2(CN(Cc3ccc(F)c(F)c3)C2)C1=O	inconclusive: 12.6 µM [inhibitor, single point]	–	–
O=C(NCC(F)(F)F)c1ccc2oc(-c3ccncc3Cl)nc2c1	–	–	inactive
CNC(=O)c1ccc2c(c1)OCCN(c1cccc(OC(F)(F)F)c1)C2	inconclusive: 56.2 µM [inhibitor, single point]	–	–
CCCCn1c(=O)c(C(=O)N2CCN(C(=O)C3CC3)CC2)nc2cccnc21	inconclusive: 39.8 µM [inhibitor, single point]	–	–

SMILES	Potency	activity change, negative = inhibition	outcome
OC1(CN2CCN(c3nccs3)CC2)CCCNC1 (stereo unspecified)	inconclusive: 8.91 µM [inhibitor, single point]	–	–
CN(C)CCNc1cc2c(cn1)NCCN(Cc1ccccc1)C2	inconclusive: 7.08 µM [inhibitor, full curve, poor fit]	–	–
O=C(Cc1ccccc1)Nc1ccc([C@H]2OCC(=O)N[C@@H]2CO)cc1	inconclusive: 56.2 µM [inhibitor, single point]	–	–
CNC(=O)[C@@H]1CN(C(=O)c2nn(C)c3ccccc23)C[C@H]1c1n[nH]c(C)n1	–	inactive: 4.9%	–
COCCC(=O)N[C@H]1CC[C@]2(C)CCC([C@H](C)C(=O)N3CCc4ccccc4C3)[C@H](O)[C@H]2[C@@H]1C (stereo partly specified)	inconclusive: 7.94 µM [inhibitor, full curve]	–	–
CNC(=O)c1cnn2c1CN(C(C)=O)CC2	inconclusive: 1.41 µM [inhibitor, partial curve, poor fit]	–	–
Cn1nccc1C(=O)N1C[C@@H](Oc2cccnc2)C[C@H]1C(=O)N1CCCC1	inconclusive: 6.31 µM [inhibitor, single point]	–	–
COC[C@@H]1CN(C(=O)c2nccc3ccccc23)C[C@H]1c1ccccn1	inconclusive: 6.31 µM [inhibitor, single point]	–	–
COc1ccc(C(=O)N2CCC3(CC2)NC(=O)N(c2ccccc2)N3)cc1OC	inconclusive: 22.4 µM [inhibitor, single point]	–	–
c1nc2nc(Nc3ccc(N4CCOCC4)cc3)nc(NC3CCCCC3)c2[nH]1	inconclusive: 43.2 µM [inhibitor, single point] and inconclusive: 17.8 µM [inhibitor, partial curve, poor fit]	–	–
CN(C)c1ccc(-c2ccnc(N[C@H]3CO[C@H]4[C@@H]3OC[C@H]4OC(=O)Nc3cccc(C#N)c3)n2)cc1	–	–	inactive
COc1ccc(CN2C(=O)COC[C@H]2C(=O)Nc2ccc(OC)c(C(F)(F)F)c2)cc1	–	–	inactive
COCCOc1ccc(C(=O)N[C@@H]2CN(C(=O)Nc3ccccc3C(=O)OC)CCC[C@H]2O)cc1	inconclusive: 3.16 µM [inhibitor, single point]	–	–
O=C(Nc1ccc(Cl)cc1Cl)c1c[nH]c2cccnc12	–	–	inactive
O=C(NC1CC1)c1cn(CCC2CCCCN2C(=O)C2CC2)nn1 (stereo unspecified)	–	–	inactive
CCCCc1nn(CC(=O)N2CCC(c3ccccc3)CC2)c(=O)n1CC	–	inactive: -3.09%	–
CC(C)(C)CC(=O)N1CC[C@@H](CC(=O)O)[C@@H](CCN2CCC[C@H]2C(N)=O)C1	inconclusive: 1.12 µM [inhibitor, partial curve, poor fit]	–	–
CCS(=O)(=O)Nc1ccc(C)n(CC(=O)N2CCCCCC2)c1=O	inconclusive: 6.31 µM [inhibitor, single point]	–	–
O=C(C1CC1)N1CCC(N2C(=O)C(OCC3CC3)C23CCOCC3)CC1 (stereo unspecified)	inconclusive: 6.31 µM [inhibitor, single point]	–	–
COCCCNC(=O)CCN(CCC(C)C)C(=O)c1cc(C)oc1C	–	–	inactive
O=C(NCc1ccccc1F)N1C[C@@H](CN2CCCCC2)[C@@H](CO)C1	inconclusive: 7.08 µM [inhibitor, single point]	–	–
Cc1noc(C)c1[S+](=O)([O-])N1CCC2(C1)N=C(c1ccncc1)C(=O)N2 (stereo unspecified)	inconclusive: 39.8 µM [inhibitor, single point]	–	–
